Out of some 220,000 compounds screened, about 5,700 (2.6%) were called active. This list was built around the results that the source calls inconclusive (neither active nor inactive); the mix of calls is not that of the screen. Calls follow the shape of the dose curve; as a rule, active = well fitted inhibition curve with a large enough effect; inconclusive = small, poorly fitted or top-dose-only effect; inactive = no such curve, though single readings can be large or run the other way. Where the call is inconclusive, the potency comes from a doubtful curve fit.
biological target: Lysine-specific demethylase 5B (Homo sapiens) (UniProt Q9UGL1); assay: Primary screen for KDM5B Histone Demethylases FDH-coupled qHTS; conditions: FDH-coupled NADH fluorescence (FDH is formaldehyde dehydrogenase); activity change, negative = inhibition: at 57.7 µM (top of the series) unless noted; also: nearly all actives have a fitted effect of over 70% in size; as to activity change, negative = inhibition: 0% is about no effect
Procedure, shortened: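 qHTS format, multiple compound concentrations. Buffer 50 mM HEPES pH 7.5/0.01% Tween-20; 200 nM KDM5BΔAP final; 10 min compound preincubation; substrate-mix levels 12.5 µM peptide, 25 µM α-KG, 0.25 mM NAD⁺; 30 min RT; ΔRFU.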
Potency is read from the fitted curve at half-maximal effect; tags tell the direction and shape of the fitted curve.

Sequence of UniProt Q9UGL1 (Q9UGL1 whole entry, looked up): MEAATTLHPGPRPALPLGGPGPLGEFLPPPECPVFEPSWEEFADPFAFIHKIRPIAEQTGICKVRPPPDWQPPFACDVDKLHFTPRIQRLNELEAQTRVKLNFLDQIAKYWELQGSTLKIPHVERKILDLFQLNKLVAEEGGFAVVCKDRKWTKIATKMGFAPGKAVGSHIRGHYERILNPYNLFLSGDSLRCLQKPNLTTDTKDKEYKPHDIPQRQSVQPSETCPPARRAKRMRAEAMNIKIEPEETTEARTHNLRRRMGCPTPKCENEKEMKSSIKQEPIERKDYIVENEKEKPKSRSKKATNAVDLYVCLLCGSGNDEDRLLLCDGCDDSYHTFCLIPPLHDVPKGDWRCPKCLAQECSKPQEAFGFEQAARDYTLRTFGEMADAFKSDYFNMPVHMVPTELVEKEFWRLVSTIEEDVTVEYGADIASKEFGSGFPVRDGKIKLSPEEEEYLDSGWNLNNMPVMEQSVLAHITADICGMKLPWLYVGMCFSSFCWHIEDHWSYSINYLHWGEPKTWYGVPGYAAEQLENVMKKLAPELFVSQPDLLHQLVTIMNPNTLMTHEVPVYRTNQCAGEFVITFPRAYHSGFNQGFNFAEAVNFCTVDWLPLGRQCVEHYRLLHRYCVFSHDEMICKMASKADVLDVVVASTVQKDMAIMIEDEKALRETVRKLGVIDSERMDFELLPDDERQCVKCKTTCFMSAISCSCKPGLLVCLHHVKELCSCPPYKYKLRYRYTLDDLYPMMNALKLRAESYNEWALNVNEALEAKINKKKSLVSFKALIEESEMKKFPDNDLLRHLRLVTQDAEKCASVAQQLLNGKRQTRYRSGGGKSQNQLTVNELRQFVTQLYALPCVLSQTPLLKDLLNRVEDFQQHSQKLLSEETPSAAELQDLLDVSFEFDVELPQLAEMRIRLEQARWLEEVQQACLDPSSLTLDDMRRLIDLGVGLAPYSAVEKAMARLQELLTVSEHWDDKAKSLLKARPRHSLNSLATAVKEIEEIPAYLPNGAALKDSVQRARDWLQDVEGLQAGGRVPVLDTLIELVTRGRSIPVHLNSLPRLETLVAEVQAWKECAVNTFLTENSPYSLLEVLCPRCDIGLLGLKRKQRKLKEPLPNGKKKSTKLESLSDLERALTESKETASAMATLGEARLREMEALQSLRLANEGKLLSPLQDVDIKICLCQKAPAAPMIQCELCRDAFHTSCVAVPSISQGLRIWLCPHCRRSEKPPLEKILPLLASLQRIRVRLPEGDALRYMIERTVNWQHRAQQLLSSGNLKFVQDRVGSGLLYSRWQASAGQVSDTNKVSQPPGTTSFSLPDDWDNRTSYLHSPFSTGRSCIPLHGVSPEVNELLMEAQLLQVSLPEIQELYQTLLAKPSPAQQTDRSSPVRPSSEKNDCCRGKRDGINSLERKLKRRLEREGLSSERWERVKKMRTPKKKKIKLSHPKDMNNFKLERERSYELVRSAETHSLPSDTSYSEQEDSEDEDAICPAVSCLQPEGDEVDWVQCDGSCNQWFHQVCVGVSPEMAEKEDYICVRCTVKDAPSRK

Row | SMILES | Potency | activity change, negative = inhibition
1 | Cc1oc(-c2ccccc2)nc1CC(=O)NCCN1CCOCC1 | inactive | –
2 | O=C(Cn1nnc(-c2ccc(F)cc2)n1)N1CCOCC1 | inactive | –
3 | CS(=O)(=O)c1ccc(CN2CC[C@H]3NCCC[C@]3(C(=O)O)C2)cc1 | inconclusive: 17.8 µM [inhibitor, single point] | –
4 | O=C(NCCCN1CCCCCC1)c1ccc(CC2CCN(C(=O)C3CC3)CC2)cc1 | inconclusive: 17.8 µM [inhibitor, partial curve, poor fit] | –
5 | CC(C)OCCCNC(=O)c1cc(-c2ccccc2)nc2ccccc12 | inactive | –
6 | COc1cc(OC)cc(C(=O)NCCn2ccn3nc(-c4cccc(OC)c4)cc3c2=O)c1 | inconclusive: 35.5 µM [inhibitor, single point] | –
7 | COc1cccc(CNC(=O)c2oc3c(c2C)-c2nn(Cc4cccc(Cl)c4)cc2CC3)c1 | inconclusive: 14.1 µM [inhibitor, partial curve, poor fit] | –
8 | CCS(=O)(=O)N1CCC2(CC1)NCCc1c2[nH]c2ccccc12 | inconclusive: 31.6 µM [inhibitor, partial curve, poor fit] | –
9 | O=C(Cn1ccn2nc(-c3ccccc3)c(CO)c2c1=O)NCc1ccccc1Cl | active: 20 µM | –
10 | Oc1c(Br)cc(Br)cc1C=Nc1ccc(F)c(Cl)c1 | inconclusive: 3.55 µM [inhibitor, full curve, poor fit] | –
11 | O=C(Nc1ccc(Cl)c(-c2nc3ncccc3o2)c1)c1cc2ccccc2o1 | inconclusive: 31.6 µM [inhibitor, single point] | –
12 | Cc1cc(C(F)(F)F)nn1CC(=O)N1CCc2n[nH]c(=O)n2CC1 | inactive | –
13 | Fc1ccc(-n2cc(-c3ccccc3)c3c(NCCc4ccccc4)ncnc32)cc1 | inconclusive: 31.6 µM [inhibitor, single point] | –
14 | CCOC(=O)C1=C(CN(CCOC)Cc2ccco2)NC(=O)NC1c1cccs1 (stereo not given) | inactive | –
15 | NCCC12CC3CC(C1)CC(C(=O)O)(C3)C2 | inconclusive: 20 µM [inhibitor, partial curve, poor fit] | –
16 | Cc1ccc(-c2cc3ccccn3c2)cc1 | inconclusive: 17.8 µM [inhibitor, partial curve, poor fit] | –
17 | COc1ccc(C2c3c(oc4ccc(C)cc4c3=O)C(=O)N2CCCN2CCOCC2)cc1OC (stereo not given) | inconclusive: 25.1 µM [inhibitor, partial curve, poor fit] | –
18 | CCOC(=O)c1[nH]c2ccc(F)cc2c1NC(=O)CCC1CCCC1 | inconclusive: 2.51 µM [inhibitor, full curve, poor fit] | –
19 | Cn1c(CSc2ccccc2Cl)nc2c1c(=O)[nH]c(=O)n2C | inactive | –
20 | COCc1nc2c(NC(=O)CC3CCCCC3)cccn2n1 | inactive | –
21 | CCOC(=O)COc1ccc(C)cc1C(=O)c1ccn2nc(-c3ccccc3)cc2n1 | inactive | –
22 | O=C(Nc1cc(F)c(F)c(F)c1)N1CCC(N2CC3CC(C2)[C@H]2CCCC(=O)N2C3)CC1 (stereo not given in full) | inconclusive: 14.1 µM [inhibitor, partial curve, poor fit] | –
23 | Cc1oc(-c2ccc(C(=O)NC3CCCC3)cc2)nc1CS(=O)(=O)c1ccccc1 | inactive | –

Row | SMILES | Potency | activity change, negative = inhibition
24 | O=C(NCCCO)C(=O)NCC(c1ccc2c(c1)OCO2)N1CCOCC1 (stereo not given) | – | inconclusive: -31.1% [inhibitor]
25 | Brc1ccc(-c2csc(NC3CCCCC3)n2)cc1 | inactive | –
26 | COCC(=O)N1CC[C@H](c2nnc(C(C)(C)C)o2)C1 | inconclusive: 39.8 µM [inhibitor, partial curve, poor fit] | –
27 | CC(C)c1ccc(CN2CCc3c(n(Cc4ccccc4)n(-c4ccccc4)c3=O)C2)cc1 | inconclusive: 35.5 µM [inhibitor, partial curve, poor fit] | –
28 | COc1cccc(C(=O)NCc2cn3ccccc3n2)c1 | inconclusive: 14.1 µM [inhibitor, partial curve, poor fit] | –
29 | NC(=O)c1cc(Cl)ccc1OCc1cccc(C(F)(F)F)c1 | inactive | –
30 | CNC(=O)c1noc([C@@H]2CC(F)(F)CN2Cc2ccc[nH]2)n1 | inconclusive: 2.82 µM [inhibitor, full curve] | –
31 | COc1ccc(C(=O)N2CCC3(CC2)N=C(c2ccc(Cl)cc2)NO3)cc1 | active: 31.6 µM | –
32 | Cc1ccc2c(CSc3n[nH]c(=O)n3C3CC3)cc(=O)oc2c1C | inactive | –
33 | O=C1N[C@H](CC(=O)N2CCN(c3ccccn3)CC2)C(=O)Nc2ccccc21 | active: 28.2 µM | –
34 | COc1cc(Nc2ncnc3scc(-c4ccc(Cl)cc4)c23)cc(OC)c1 | inactive | –
35 | COc1ccccc1C(C)NC(=O)CN1CCN(c2ccc([N+](=O)[O-])c3cnccc23)CC1 (stereo not given) | inactive | –
36 | O=C(c1cn[nH]c1-n1cnnn1)N1C[C@H](CO)C[C@H](CN2CCCC2)C1 | inconclusive: 20 µM [inhibitor, partial curve, poor fit] | –
37 | CC(C)c1ccccc1-n1c(SCC(=O)N2CCC2)nc2ccccc2c1=O | inactive | –
38 | CCC(=O)N1CCC2(CC1)c1[nH]c3ccccc3c1CCN2C | inactive | –
39 | CCOc1cc(C#N)c(NC(=O)c2ccc(Cl)cc2)cc1OCC | inactive | –
40 | Cc1ccc(C2=NC3(CCN(C(=O)Cc4cccc(F)c4)CC3)ON2)cc1 | inconclusive: 31.6 µM [inhibitor, partial curve, poor fit] | –
41 | COc1ccc(NCc2cc3cc4c(cc3n(CC(=O)Nc3ccc(F)cc3)c2=O)OCCO4)cc1 | inconclusive: 1.78 µM [inhibitor, partial curve, poor fit] | –
42 | COc1cccc(C(=O)N(Cc2cccnc2)c2nc3c(OC)ccc(C)c3s2)c1OC | inconclusive: 28.2 µM [inhibitor, single point] | –
43 | COc1cccc(OCc2nnc(C(=O)N3CCC[C@@H]3c3nc4ccccc4[nH]3)n2-c2ccccc2)c1OC | inactive | –
44 | O=C(O)c1ccc2nc(-c3ccc(-c4ccccc4)cc3)c(-c3ccc(-c4ccccc4)cc3)nc2c1 | inconclusive: 15.8 µM [inhibitor, partial curve, poor fit] | –
45 | COc1ccc(-c2ccc3nnc(CNC(=O)C(C)Oc4cccc(Cl)c4)n3n2)cc1 (stereo not given) | active: 28.2 µM | –
